The full ranking holds about 33,000 sequences; the median of “E-score (-0.5 to 0.5)” is about -0.012, and the highest 2% start at about 0.27. The list shows a part of the results.

The test has as its target T1, Vhr1 (UniProt P40522).
T1 sequence: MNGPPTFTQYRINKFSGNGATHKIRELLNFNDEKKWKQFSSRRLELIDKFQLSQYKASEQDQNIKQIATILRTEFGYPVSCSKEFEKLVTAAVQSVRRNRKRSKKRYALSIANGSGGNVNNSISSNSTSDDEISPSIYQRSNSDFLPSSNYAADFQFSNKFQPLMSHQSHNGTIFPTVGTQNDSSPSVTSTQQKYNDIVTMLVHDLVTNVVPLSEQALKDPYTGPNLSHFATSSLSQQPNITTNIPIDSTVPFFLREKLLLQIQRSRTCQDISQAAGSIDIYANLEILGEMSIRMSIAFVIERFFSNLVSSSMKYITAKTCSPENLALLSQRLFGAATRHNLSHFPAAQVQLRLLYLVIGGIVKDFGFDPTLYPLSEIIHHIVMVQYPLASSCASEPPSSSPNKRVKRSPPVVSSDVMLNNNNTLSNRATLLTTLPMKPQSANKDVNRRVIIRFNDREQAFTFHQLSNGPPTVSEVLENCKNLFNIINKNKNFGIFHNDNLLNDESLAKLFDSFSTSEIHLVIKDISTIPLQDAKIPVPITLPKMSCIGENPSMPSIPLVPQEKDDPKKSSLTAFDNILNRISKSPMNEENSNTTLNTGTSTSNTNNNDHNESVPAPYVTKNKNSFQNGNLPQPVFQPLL
The test is described as follows: PBM E-score (8-mer binding enrichment) (E-score (-0.5 to 0.5)); higher = stronger / more preferred TF binding; most listed sequences are background and not binding sites. To be noted: protein concentration: 200 nM; construct: GST-full length. The method, then: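 Universal 'all 10-mer' protein binding microarrays (Agilent AMADID 015681) probed with GST-tagged S. cerevisiae TFs (full-length or DBD) made by in vitro transcription/translation (PURExpress), about 100-200 nM. Bound TF was detected with fluorescent anti-GST. Each ungapped 8-mer (which stands for itself and its reverse complement) is scored by the PBM enrichment score (E-score), a modified Wilcoxon-Mann-Whitney statistic from -0.5 to +0.5, computed with the Universal PBM Analysis Suite. Scale: above 0.35 generally sequence-specific binding.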
As for CATAGCCG, the “PBM E-score” value is -0.0116.

For CAGTTACC, the “PBM E-score” value was -0.14. The value for GATAAATC was -0.091. The value for ACGGGACT was -0.0602. ATTGTCAA: the “PBM E-score” value turned out to be 0.0852. In the case of AACTAACC it was 0.215; in that of ACCTAAGT, 0.0395. On to CGAGAGCC, for which the “PBM E-score” value is -0.0736. As for GAAATGGC, the “PBM E-score” value is -0.17. As to AAAAGCGC, the “PBM E-score” value is -0.137. On to CGTAGGGC, for which the “PBM E-score” value was -0.339. In the case of AATTGACA it was -0.175.

For CAGCGGTA, the “PBM E-score” value is -0.011.

Turning to CATAGAAG, the “PBM E-score” value was -0.0987. The value for ACGCCGCA was 0.0541; that for TCCCTCCA was -0.139; that for AGCCTAGA was -0.291.

For CAGCCGGA, the “PBM E-score” value stood at 0.198. As for AATACTGC, the “PBM E-score” value was -0.0473. The value for AGCTCGAA was -0.0606. For the sequence CAATGGCG, the “PBM E-score” value was -0.104. As for TCGAGGCA, the “PBM E-score” value was found to be 0.018. For the sequence GTGCCGCA, the “PBM E-score” value is -0.118. In the case of TCATTCCA it was 0.0385. As to TCGAATCA, the “PBM E-score” value worked out at 0.253. Turning to GCCCACAA, the “PBM E-score” value was -0.022. The value for ACGGCACC was -0.293. In the case of ACTCCTTA it was -0.0469; in that of CATTCCTA, 0.0131; in that of AAGTATAA, 0.00367.

With AAATCCGC, the “PBM E-score” value is -0.148.

With CGGCACAA, the “PBM E-score” value was -0.0308. The value for AGATGTTC was -0.219; that for ACAATTCG was 0.0415; that for GACCCACA was 0.284. In the case of ATACGAAA it was 0.101. The value for CCGCCCGA was 0.161.

Take AGACCCTA: the “PBM E-score” value was -0.0568. In the case of CAAGCCAC it was -0.127. The value for AAGTCTTC was -0.151. In the case of AAATACGC it was -0.0213; in that of ATTCAGCG, -0.0101; in that of CGCTGCAC, 0.106. As to GCCGTAAC, the “PBM E-score” value was -0.0732. In the case of CTGTTAAA it was -0.214; in that of AAATCGAG, -0.0638; in that of ACCAGGGG, 0.0276.

Consider ACTAATAC, for which the “PBM E-score” value was 0.192. The value for CCATGTAC was 0.0619. The value for CGGCCTTC was -0.128; that for GGTTTGTA was 0.016. Consider GTGCGTAA, for which the “PBM E-score” value was -0.0387.

In the case of ACAAGAGC, the “PBM E-score” value is -0.0338. The value for CAGACAGC was -0.163. Turning to ATGTATTG, the “PBM E-score” value was 0.241. In the case of AATTCCTG it was -0.306; in that of CTTCGCAC, -0.127; in that of TGGAACAA, -0.0669.

Regarding AATGCGCA, the “PBM E-score” value amounted to 0.0444. On to AGTTACGG, for which the “PBM E-score” value was found to be 0.0674.

For the sequence GTCTCATA, the “PBM E-score” value was 0.0749. Regarding CATTTTTC, the “PBM E-score” value is -0.132. For TCACCACA, the “PBM E-score” value is 0.236.

On to ATTACAAA, for which the “PBM E-score” value came out at 0.0693. As for CAGGTATC, the “PBM E-score” value was -0.0492. In the case of AACAATAC it was 0.0279. The value for GCCTCAGA was 0.138; that for CAACCCCG was -0.041; that for CGAACTCC was 0.00855.

Consider AACCCAGC, for which the “PBM E-score” value stood at 0.162. In the case of GCCTATAA it was -0.118; in that of GCGGACAC, 0.0247. Consider TACCGATA, for which the “PBM E-score” value was -0.0891.

As to AGGGTTGG, the “PBM E-score” value was -0.0946. In the case of CAATTTTA it was -0.0392; in that of AATTGTCT, -0.00025; in that of ATGCAACA, 0.0546. The value for CACAGTCG was 0.0927. With AACCAGGG, the “PBM E-score” value was 0.0884. With TATATCCA, the “PBM E-score” value stood at 0.0413. For GTAGGAAA, the “PBM E-score” value is -0.0392.

With GCTCCGTA, the “PBM E-score” value is -0.0643.

Regarding ATATATAC, the “PBM E-score” value was determined as 0.285.

In the case of CATTCAAA, the “PBM E-score” value stood at 0.00057. With AGCTCCCG, the “PBM E-score” value was -0.194. In the case of AAAGCTGG it was -0.13.

The values are drawn from the supplement of paper PMC3334620.
